{"source": "the DeepSol protein solubility set", "experiment": "soluble on expression in E. coli; label from the status in PepcDB or PDB records", "data": [{"sequence": "LTYTDCTESGQNLCLCEGSNVCGQGNKCILGSDGEKNQCVTGEGTPKPQSHNDGDFEEIPEEYLQ", "values": [{"measurement": "soluble on expression in E. coli", "result": "soluble"}]}, {"sequence": "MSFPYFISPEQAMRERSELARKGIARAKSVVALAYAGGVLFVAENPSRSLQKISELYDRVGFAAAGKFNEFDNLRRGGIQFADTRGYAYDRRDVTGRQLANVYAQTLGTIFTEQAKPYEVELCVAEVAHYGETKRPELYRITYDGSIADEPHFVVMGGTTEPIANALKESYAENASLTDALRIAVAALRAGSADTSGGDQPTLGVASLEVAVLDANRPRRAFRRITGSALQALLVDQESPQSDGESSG", "values": [{"measurement": "soluble on expression in E. coli", "result": "soluble"}]}]}
